Measurements reported in the supplement of paper PMC10369915.
This is one part of the list. Cut-off read from the data, not from the text of the source: active = 3.2 or more and inactive = the rest. Most of these values are background signal.
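Note: displayed peptides selected on beads carrying the immobilized SH2 domain, with library peptides lacking any tyrosine serving as negative controls.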

Each binder was assayed against SHP2 C-SH2 domain E139D (assay: enrichment score (SH2-bound / input frequency) (ratio); bacterial display of known human phosphotyrosine sites (pTyr-Var adds point mutants) read by sequencing; higher = stronger binding; tyrosines were phosphorylated by kinases first). Conditions: peptide library: pTyr-Var.
EAIMTYVSSFY [ACTN4_Y260_K255E] was tested, and the enrichment score was inactive: 0.777.
With TIQDAYMHITS [ADCY10_Y318_A313T] the enrichment score was inactive: 0.972.
CSHMFYGKQCC [ADAMTS16_Y1211_K1209M] was tested, and the enrichment score was inactive: 1.27.
For FVFSFYHAFSG [ACTN4_Y265_S262F_YF], the enrichment score was inactive: 2.15.
In the case of KANEFYPVVII [ADAMTS18_Y765_L769I_YF], the enrichment score is reported as inactive: 0.317.
In the case of SSSNPYSTVTM [ACTN2_Y599], the enrichment score is reported as inactive: 0.885.
In the case of ISKQEYDEAGP [ACTC1_Y364], the enrichment score is reported as inactive: 0.49.
For GGSTYYIDTNA [ACTL6A_Y69_P66S], the enrichment score was inactive: 0.572.
With KANEYYPVVLI [ADAMTS18_Y765] the enrichment score was inactive: 0.613.
RPASQYPHQVP [ADAM12_Y895_P893S] was tested, and the enrichment score was inactive: 0.758.
For KAIMTYVSSFY [ACTN4_Y260], the enrichment score was inactive: 0.826.
For AGITAYQSCLQ [ADGRA2_Y377], the enrichment score was inactive: 0.845.
GIVEDYRPTFF [ACVRL1_Y421_P424T_YF] was tested, and the enrichment score was inactive: 0.877.
In the case of EAIMTYVSSFF [ACTN4_Y260_K255E_YF], the enrichment score is reported as inactive: 0.761.
For NTPNAYLRVNV [ADD2_Y440_T439A], the enrichment score was inactive: 0.936.
For LLSISYVGCSL [ADGRD1_Y571_S567L], the enrichment score was inactive: 1.79.
For IRRIAYEFVEM [ADA_Y84_K80R], the enrichment score was inactive: 1.07.
In the case of YVFSFYHAFSG [ACTN4_Y265_S262F], the enrichment score is reported as inactive: 2.44.
For RDLTHYLMKIL [ACTG1_Y188_D187H], the enrichment score was active: 3.52.

Each binder was assayed against SHP2 C-SH2 domain wild-type in the same assay as above. Conditions: peptide library: pTyr-Var.
With EAIMTYVSSFY [ACTN4_Y260_K255E] the enrichment score was inactive: 0.631.
With TIQDAYMHITS [ADCY10_Y318_A313T] the enrichment score was inactive: 0.624.
For CSHMFYGKQCC [ADAMTS16_Y1211_K1209M], the enrichment score was inactive: 1.58.
With FVFSFYHAFSG [ACTN4_Y265_S262F_YF] the enrichment score was inactive: 2.81.
With KANEFYPVVII [ADAMTS18_Y765_L769I_YF] the enrichment score was inactive: 0.41.
In the case of SSSNPYSTVTM [ACTN2_Y599], the enrichment score is reported as inactive: 2.38.
For ISKQEYDEAGP [ACTC1_Y364], the enrichment score was inactive: 0.643.
In the case of GGSTYYIDTNA [ACTL6A_Y69_P66S], the enrichment score is reported as inactive: 0.675.
KANEYYPVVLI [ADAMTS18_Y765] was tested, and the enrichment score was inactive: 0.533.
In the case of RPASQYPHQVP [ADAM12_Y895_P893S], the enrichment score is reported as inactive: 0.639.
With KAIMTYVSSFY [ACTN4_Y260] the enrichment score was inactive: 0.736.
With AGITAYQSCLQ [ADGRA2_Y377] the enrichment score was inactive: 1.08.
For GIVEDYRPTFF [ACVRL1_Y421_P424T_YF], the enrichment score was inactive: 0.924.
With EAIMTYVSSFF [ACTN4_Y260_K255E_YF] the enrichment score was inactive: 0.622.
With NTPNAYLRVNV [ADD2_Y440_T439A] the enrichment score was inactive: 1.38.
LLSISYVGCSL [ADGRD1_Y571_S567L] was tested, and the enrichment score was inactive: 1.58.
IRRIAYEFVEM [ADA_Y84_K80R] was tested, and the enrichment score was inactive: 0.701.
With YVFSFYHAFSG [ACTN4_Y265_S262F] the enrichment score was inactive: 2.33.
In the case of RDLTHYLMKIL [ACTG1_Y188_D187H], the enrichment score is reported as active: 3.82.

What follows are binders tested against SHP2 N-SH2 domain L43F in the same assay as above. Conditions: peptide library: pTyr-Var.
EAIMTYVSSFY [ACTN4_Y260_K255E] was tested, and the enrichment score was inactive: 0.749.
TIQDAYMHITS [ADCY10_Y318_A313T] was tested, and the enrichment score was inactive: 0.787.
With CSHMFYGKQCC [ADAMTS16_Y1211_K1209M] the enrichment score was inactive: 1.33.
FVFSFYHAFSG [ACTN4_Y265_S262F_YF] was tested, and the enrichment score was inactive: 2.47.
In the case of KANEFYPVVII [ADAMTS18_Y765_L769I_YF], the enrichment score is reported as inactive: 0.608.
SSSNPYSTVTM [ACTN2_Y599] was tested, and the enrichment score was inactive: 0.548.
In the case of ISKQEYDEAGP [ACTC1_Y364], the enrichment score is reported as inactive: 0.465.
For GGSTYYIDTNA [ACTL6A_Y69_P66S], the enrichment score was inactive: 0.932.
For KANEYYPVVLI [ADAMTS18_Y765], the enrichment score was inactive: 0.773.
For RPASQYPHQVP [ADAM12_Y895_P893S], the enrichment score was inactive: 0.571.
For KAIMTYVSSFY [ACTN4_Y260], the enrichment score was inactive: 0.717.
With AGITAYQSCLQ [ADGRA2_Y377] the enrichment score was inactive: 0.745.
For GIVEDYRPTFF [ACVRL1_Y421_P424T_YF], the enrichment score was inactive: 0.959.
EAIMTYVSSFF [ACTN4_Y260_K255E_YF] was tested, and the enrichment score was inactive: 0.671.
With NTPNAYLRVNV [ADD2_Y440_T439A] the enrichment score was inactive: 1.28.
In the case of LLSISYVGCSL [ADGRD1_Y571_S567L], the enrichment score is reported as inactive: 1.77.
For IRRIAYEFVEM [ADA_Y84_K80R], the enrichment score was inactive: 0.683.
In the case of YVFSFYHAFSG [ACTN4_Y265_S262F], the enrichment score is reported as inactive: 2.13.
In the case of RDLTHYLMKIL [ACTG1_Y188_D187H], the enrichment score is reported as active: 3.62.

What follows are binders tested against SHP2 N-SH2 domain T42A in the same assay as above. Conditions: peptide library: pTyr-Var.
EAIMTYVSSFY [ACTN4_Y260_K255E] was tested, and the enrichment score was inactive: 0.61.
With TIQDAYMHITS [ADCY10_Y318_A313T] the enrichment score was inactive: 0.679.
For CSHMFYGKQCC [ADAMTS16_Y1211_K1209M], the enrichment score was inactive: 1.43.
In the case of FVFSFYHAFSG [ACTN4_Y265_S262F_YF], the enrichment score is reported as inactive: 2.49.
In the case of KANEFYPVVII [ADAMTS18_Y765_L769I_YF], the enrichment score is reported as inactive: 0.239.
For SSSNPYSTVTM [ACTN2_Y599], the enrichment score was inactive: 0.749.
With ISKQEYDEAGP [ACTC1_Y364] the enrichment score was inactive: 0.425.
In the case of GGSTYYIDTNA [ACTL6A_Y69_P66S], the enrichment score is reported as inactive: 0.992.
In the case of KANEYYPVVLI [ADAMTS18_Y765], the enrichment score is reported as inactive: 0.646.
With RPASQYPHQVP [ADAM12_Y895_P893S] the enrichment score was inactive: 0.564.
For KAIMTYVSSFY [ACTN4_Y260], the enrichment score was inactive: 0.582.
AGITAYQSCLQ [ADGRA2_Y377] was tested, and the enrichment score was inactive: 0.813.
For GIVEDYRPTFF [ACVRL1_Y421_P424T_YF], the enrichment score was inactive: 0.858.
EAIMTYVSSFF [ACTN4_Y260_K255E_YF] was tested, and the enrichment score was inactive: 0.497.
With NTPNAYLRVNV [ADD2_Y440_T439A] the enrichment score was inactive: 2.93.
In the case of LLSISYVGCSL [ADGRD1_Y571_S567L], the enrichment score is reported as inactive: 0.939.
IRRIAYEFVEM [ADA_Y84_K80R] was tested, and the enrichment score was inactive: 0.882.
With YVFSFYHAFSG [ACTN4_Y265_S262F] the enrichment score was inactive: 2.02.
With RDLTHYLMKIL [ACTG1_Y188_D187H] the enrichment score was active: 3.41.

Each binder was assayed against SHP2 N-SH2 domain T52S in the same assay as above. Conditions: peptide library: pTyr-Var.
With EAIMTYVSSFY [ACTN4_Y260_K255E] the enrichment score was inactive: 0.683.
For TIQDAYMHITS [ADCY10_Y318_A313T], the enrichment score was inactive: 0.801.
For CSHMFYGKQCC [ADAMTS16_Y1211_K1209M], the enrichment score was inactive: 1.48.
In the case of FVFSFYHAFSG [ACTN4_Y265_S262F_YF], the enrichment score is reported as inactive: 2.36.
KANEFYPVVII [ADAMTS18_Y765_L769I_YF] was tested, and the enrichment score was inactive: 0.346.
With SSSNPYSTVTM [ACTN2_Y599] the enrichment score was inactive: 0.508.
ISKQEYDEAGP [ACTC1_Y364] was tested, and the enrichment score was inactive: 0.493.
In the case of GGSTYYIDTNA [ACTL6A_Y69_P66S], the enrichment score is reported as inactive: 0.643.
For KANEYYPVVLI [ADAMTS18_Y765], the enrichment score was inactive: 0.966.
In the case of RPASQYPHQVP [ADAM12_Y895_P893S], the enrichment score is reported as inactive: 0.417.
In the case of KAIMTYVSSFY [ACTN4_Y260], the enrichment score is reported as inactive: 0.797.
With AGITAYQSCLQ [ADGRA2_Y377] the enrichment score was inactive: 0.594.
With GIVEDYRPTFF [ACVRL1_Y421_P424T_YF] the enrichment score was inactive: 0.97.
With EAIMTYVSSFF [ACTN4_Y260_K255E_YF] the enrichment score was inactive: 0.655.
NTPNAYLRVNV [ADD2_Y440_T439A] was tested, and the enrichment score was inactive: 1.35.
For LLSISYVGCSL [ADGRD1_Y571_S567L], the enrichment score was inactive: 2.05.
With IRRIAYEFVEM [ADA_Y84_K80R] the enrichment score was inactive: 0.757.
With YVFSFYHAFSG [ACTN4_Y265_S262F] the enrichment score was inactive: 2.29.
For RDLTHYLMKIL [ACTG1_Y188_D187H], the enrichment score was active: 3.2.

Each binder was assayed against SHP2 N-SH2 domain wild-type in the same assay as above. Conditions: peptide library: pTyr-Var.
EAIMTYVSSFY [ACTN4_Y260_K255E] was tested, and the enrichment score was inactive: 0.767.
For TIQDAYMHITS [ADCY10_Y318_A313T], the enrichment score was inactive: 0.778.
CSHMFYGKQCC [ADAMTS16_Y1211_K1209M] was tested, and the enrichment score was inactive: 1.52.
FVFSFYHAFSG [ACTN4_Y265_S262F_YF] was tested, and the enrichment score was inactive: 2.67.
In the case of KANEFYPVVII [ADAMTS18_Y765_L769I_YF], the enrichment score is reported as inactive: 0.378.
For SSSNPYSTVTM [ACTN2_Y599], the enrichment score was inactive: 0.629.
In the case of ISKQEYDEAGP [ACTC1_Y364], the enrichment score is reported as inactive: 0.538.
For GGSTYYIDTNA [ACTL6A_Y69_P66S], the enrichment score was inactive: 0.885.
For KANEYYPVVLI [ADAMTS18_Y765], the enrichment score was inactive: 0.662.
In the case of RPASQYPHQVP [ADAM12_Y895_P893S], the enrichment score is reported as inactive: 0.741.
For KAIMTYVSSFY [ACTN4_Y260], the enrichment score was inactive: 0.845.
In the case of AGITAYQSCLQ [ADGRA2_Y377], the enrichment score is reported as inactive: 1.12.
GIVEDYRPTFF [ACVRL1_Y421_P424T_YF] was tested, and the enrichment score was inactive: 1.04.
EAIMTYVSSFF [ACTN4_Y260_K255E_YF] was tested, and the enrichment score was inactive: 0.65.
With NTPNAYLRVNV [ADD2_Y440_T439A] the enrichment score was inactive: 0.951.
In the case of LLSISYVGCSL [ADGRD1_Y571_S567L], the enrichment score is reported as inactive: 1.85.
IRRIAYEFVEM [ADA_Y84_K80R] was tested, and the enrichment score was inactive: 1.02.
With YVFSFYHAFSG [ACTN4_Y265_S262F] the enrichment score was inactive: 2.19.
In the case of RDLTHYLMKIL [ACTG1_Y188_D187H], the enrichment score is reported as active: 3.39.
